# T1: bovine ADAM10 ECD (Bos taurus, UniProt Q10741)
# T1 construct: Bovine ADAM10 ECD (20-646); Fc-tag (C, cleaved yes); made in house; host or cells: HEK293 cells
# T1 sequence (Q10741 20-646): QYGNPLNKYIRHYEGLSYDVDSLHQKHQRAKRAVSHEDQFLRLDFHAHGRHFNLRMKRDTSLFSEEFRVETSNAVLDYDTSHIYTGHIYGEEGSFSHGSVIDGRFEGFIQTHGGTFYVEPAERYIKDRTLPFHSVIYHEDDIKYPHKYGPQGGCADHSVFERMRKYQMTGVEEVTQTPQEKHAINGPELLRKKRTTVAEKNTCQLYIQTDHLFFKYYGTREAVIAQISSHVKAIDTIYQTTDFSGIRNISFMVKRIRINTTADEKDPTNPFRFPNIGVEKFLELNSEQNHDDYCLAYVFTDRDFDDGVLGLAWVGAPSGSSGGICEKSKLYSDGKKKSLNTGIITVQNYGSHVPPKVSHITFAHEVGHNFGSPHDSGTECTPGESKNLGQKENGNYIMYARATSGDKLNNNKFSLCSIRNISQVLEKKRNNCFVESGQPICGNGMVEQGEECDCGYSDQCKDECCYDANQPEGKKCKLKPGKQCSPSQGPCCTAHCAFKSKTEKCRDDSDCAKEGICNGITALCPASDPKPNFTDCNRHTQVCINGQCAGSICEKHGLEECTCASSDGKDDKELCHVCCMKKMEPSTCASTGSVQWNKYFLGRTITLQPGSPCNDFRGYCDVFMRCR
# T2: bovine (b) ADAM10 D+C (Bos taurus, UniProt Q10741)
# T2 construct: the D+C domains (455-646) were cloned, expressed and purified from HEK293 cells; Fc-tag (C, cleaved yes); made in house; host or cells: HEK293 cells
# T2 sequence (Q10741 455-646): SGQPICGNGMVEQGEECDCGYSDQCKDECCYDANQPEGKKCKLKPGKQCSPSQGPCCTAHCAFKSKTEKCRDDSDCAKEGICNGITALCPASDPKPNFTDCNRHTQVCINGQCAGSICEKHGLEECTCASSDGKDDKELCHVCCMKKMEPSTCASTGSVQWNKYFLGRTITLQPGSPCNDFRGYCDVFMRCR
# T3: human ADAM10 ECD (Homo sapiens, UniProt O14672)
# T3 construct: Human ADAM10 ECD (20-650); Fc-tag (human); made in house; host or cells: baculovirus-infected Hi5 insect cells
# T3 sequence (O14672 20-650): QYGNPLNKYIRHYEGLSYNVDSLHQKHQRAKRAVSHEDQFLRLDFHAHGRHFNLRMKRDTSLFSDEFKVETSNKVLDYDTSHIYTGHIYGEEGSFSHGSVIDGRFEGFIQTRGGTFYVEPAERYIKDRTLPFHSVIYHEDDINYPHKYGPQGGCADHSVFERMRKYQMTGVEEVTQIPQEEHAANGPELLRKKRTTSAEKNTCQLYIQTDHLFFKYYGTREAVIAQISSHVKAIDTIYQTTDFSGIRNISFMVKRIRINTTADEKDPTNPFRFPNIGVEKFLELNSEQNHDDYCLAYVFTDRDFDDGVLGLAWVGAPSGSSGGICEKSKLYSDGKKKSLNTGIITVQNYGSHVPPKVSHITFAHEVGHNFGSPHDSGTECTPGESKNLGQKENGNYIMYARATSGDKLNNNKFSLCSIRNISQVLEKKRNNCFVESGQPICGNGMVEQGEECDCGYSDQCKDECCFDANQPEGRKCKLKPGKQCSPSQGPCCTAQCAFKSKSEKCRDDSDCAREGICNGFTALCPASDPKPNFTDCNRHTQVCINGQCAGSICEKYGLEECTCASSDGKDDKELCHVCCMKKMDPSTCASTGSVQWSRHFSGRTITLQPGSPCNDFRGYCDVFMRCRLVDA
# B1: 1H5: fully human anti-ADAM10 antibody clone; heavy chain SEQ ID NO: 14, light chain SEQ ID NO: 15 (antibody)
# heavy: QVQLVESGGGLVKPGGSLRLSCAASGFTFSDYYMSWIRQAPGKGLEWVSYISSSGSTIYYADSVKGRFTISRDNAKNSLYLQMNSLRAEDTAVYYCARDFYDSKIFDYWGQGTLVTVSS[human IgG1 constant region left out]
# light: DIQMTQSPSSLSASVGDRVTITCRASQSISSYLNWYQQKPGKAPKLLIYAASSLQSGVPSRFSGSGSGTDFTLTISSLQPEDVGVYYCMEGLKTPFTFGPGTKLEIKRTVAAPSVFIFPPSDEQLKSGTASVVCLLNNFYPREAKVQWKVDNALQSGNSQESVTEQDSKDSTYSLSSTLTLSKADYEKHKVYACEVTHQGLSSPVTKSFNRGEC
# How the values were obtained:
# human ADAM17 D+C = target: T4, human ADAM17 D+C (Homo sapiens, UniProt P78536); assay: ELISA, 1H5 IgG binding to human ADAM17 D+C; details: FIG. 2 Panel E
# T4 construct: the human ADAM17 D+C (482-648); Fc-tag (human); made in house; host or cells: baculovirus-infected Hi5 insect cells
# T4 sequence (P78536 482-648): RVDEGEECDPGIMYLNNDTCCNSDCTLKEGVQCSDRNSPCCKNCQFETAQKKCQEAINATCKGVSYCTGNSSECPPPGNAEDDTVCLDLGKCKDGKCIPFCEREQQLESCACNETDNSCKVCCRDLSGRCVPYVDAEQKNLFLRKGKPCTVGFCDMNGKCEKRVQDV
# Excerpt: (§1) Panels A-C show characterization of the fully human 1H5 Fab. […] [Lane 1: Low molecular weight standards (Bio-Rad). Lane 2: bead bound murine 8C7 immunoglobulin G (IgG)+ADAM10 D+C. […] Lane 4: bead bound ADAM10 D+C without any pre-bound mAb. Lane 5: ADAM10 D-f-C input]
# HTC116 = assay: Alamar blue cell viability assay, HTC116; format: cell-based, human
# Experimental: For the Alamar blue cell viability assays, the cells were harvested in the log phase of growth (after 3 days of culturing). The cell count was determined and was adjusted to 5×10^4 cells/ml. […] The cells were allowed to grow for an additional 38 hours. Cells not treated with 1H5 were used as a control. Alamar Blue (10% of the well volume) was added aseptically. Cultures containing Alamar Blue were incubated for 6 hours, and cell proliferation was measured spectrophotometrically by absorbance at 570 and 600 nm. Cell viability was calculated using the following formula:
# O1=molar extinction coefficient (E) of oxidized alamarBlue® (Blue) at 570 nm, O2=E of oxidized alamarBlue® at 600 nm, A1=absorbance of test wells at 570 nm, A2=absorbance of test wells at 600 nm, P1=absorbance of positive growth control well (cells plus AamarBlue® but no test agent) at 570 nm, P2=absorbance of positive growth control well (cells plus AlamarBlue® but no test agent) at 600 nm (O'Brien et al., 2000).
# bovine ADAM10 ECD = target: T1, bovine ADAM10 ECD; assay: Fluorogenic peptide cleavage assay, bovine ADAM10 ECD; format: biochemical; details: 1:1 molar ratio
# Experimental: (§2) ADAM10 ECD-antibody or ADAM10 ECD-inhibitor (broad spectrum metalloprotease inhibitor GM6001) complexes were formed at a 1:1 molar ratio prior to the assay. The assay was carried out by mixing 50 μM of a fluorogenic peptide substrate Mca-PLAQAV-Dpa with ADAM10-antibody/inhibitor complexes at 37° C., and monitoring the progress of the enzymatic reaction by fluorescence emission (excitation 320 nm and emission 405 nm) over a time course of 1 hour using a SpectraMax M5. ADAM10 ECD (bovine or human) alone was used as positive control. The substrate peptide was derived from TNFalpha and contains a highly fluorescent 7-methoxycoumarin group and a quencher group, 2,4-dinitrophenyl. ADAM10 cleaves the amide bond between the fluorescent and the quencher group causing an increase in fluorescence (Seegar et al., 2017; Black & Becherer, 1998).
# bovine (b) ADAM10 D+C = target: T2, bovine (b) ADAM10 D+C; assay: ELISA, 1H5 IgG binding to immobilized bovine ADAM10 D+C; details: FIG. 2 Panel E
# Excerpt: as §1
# human ADAM10 ECD = target: T3, human ADAM10 ECD; assay: Fluorogenic peptide cleavage assay, human ADAM10 ECD; format: biochemical; details: 1:1 molar ratio
# Experimental: as §2
molecule,measurement,setting,value
B1,binding to human ADAM17 D+C,human ADAM17 D+C,but not to
same,growth of colon cancer cell line,HTC116,inhibited growth
same,ADAM10 enzymatic activity,bovine ADAM10 ECD,promoted the ADAM10 enzymatic activity
same,binding to immobilized bovine ADAM10 D+C,bovine (b) ADAM10 D+C,binds specifically
same,ADAM10 enzymatic activity,human ADAM10 ECD,promoted the ADAM10 enzymatic activity
